# Laboratory results as given in the supplement of paper PMC8728848.
# This is one part of the list.
# How the values were obtained:
# Test in all cases: glycan array binding signal (z-score within array); higher = stronger binding
# Conditions in all cases: glycan notation: IUPAC condensed, linker removed
# Fuc(a1-2)Gal = target: Fuc(a1-2)Gal
# Method in brief: (§1)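 The binding signal is a Z-score computed within each array. Data were drawn from 3228 arrays in the Consortium for Functional Glycomics database, restricted to those with a known protein sequence. Scores were averaged over arrays of the same protein sequence at different concentrations or buffers, and over linkers, and negative values can be taken as non-binding.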
# Fuc(a1-2)Gal(b1-3)GalNAc = target: Fuc(a1-2)Gal(b1-3)GalNAc
# Method in brief: as §1
# [1] = target: Fuc(a1-2)Gal(b1-3)GalNAc(b1-3)Gal
# Method in brief: as §1
# [2] = target: Fuc(a1-2)Gal(b1-3)GalNAc(b1-3)Gal(a1-4)Gal(b1-4)Glc
# Method in brief: as §1
# [3] = target: Fuc(a1-2)Gal(b1-3)GalNAc(b1-4)[Neu5Ac(a2-3)]Gal(b1-4)Glc
# Method in brief: as §1
# Fuc(a1-2)Gal(b1-3)GlcNAc = target: Fuc(a1-2)Gal(b1-3)GlcNAc
# Method in brief: as §1
# [4] = target: Fuc(a1-2)Gal(b1-3)GlcNAc(b1-2)Man(a1-3)[Fuc(a1-2)Gal(b1-3)GlcNAc(b1-2)Man(a1-6)]Man(b1-4)GlcNAc(b1-4)GlcNAc
# Method in brief: as §1
# [5] = target: Fuc(a1-2)Gal(b1-3)GlcNAc(b1-3)Gal(b1-4)Glc
# Method in brief: as §1
# [6] = target: Fuc(a1-2)Gal(b1-3)GlcNAc(b1-3)[Gal(b1-4)[Fuc(a1-3)]GlcNAc(b1-6)]Gal(b1-4)Glc
# Method in brief: as §1
# [7] = target: Fuc(a1-2)Gal(b1-3)[Fuc(a1-4)]GlcNAc
# Method in brief: as §1
# [8] = target: Fuc(a1-2)Gal(b1-3)[Fuc(a1-4)]GlcNAc(b1-2)Man(a1-3)[Fuc(a1-2)Gal(b1-3)[Fuc(a1-4)]GlcNAc(b1-2)Man(a1-6)]Man(b1-4)GlcNAc(b1-4)GlcNAc
# Method in brief: as §1
# Fuc(a1-2)Gal(b1-4)Glc = target: Fuc(a1-2)Gal(b1-4)Glc
# Method in brief: as §1
# Fuc(a1-2)Gal(b1-4)Glc6S = target: Fuc(a1-2)Gal(b1-4)Glc6S
# Method in brief: as §1
# Fuc(a1-2)Gal(b1-4)GlcNAc = target: Fuc(a1-2)Gal(b1-4)GlcNAc
# Method in brief: as §1
# [9] = target: Fuc(a1-2)Gal(b1-4)GlcNAc(b1-2)Man(a1-3)[Fuc(a1-2)Gal(b1-4)GlcNAc(b1-2)Man(a1-6)]Man(b1-4)GlcNAc(b1-4)GlcNAc
# Method in brief: as §1
# [10] = target: Fuc(a1-2)Gal(b1-4)GlcNAc(b1-3)Gal(b1-4)GlcNAc
# Method in brief: as §1
# [11] = target: Fuc(a1-2)Gal(b1-4)GlcNAc(b1-3)Gal(b1-4)GlcNAc(b1-3)Gal(b1-4)GlcNAc
# Method in brief: as §1
# [12] = target: Fuc(a1-2)Gal(b1-4)GlcNAc6S
# Method in brief: as §1
# [13] = target: Fuc(a1-2)Gal(b1-4)[Fuc(a1-3)]GlcNAc
# Method in brief: as §1
# [14] = target: Fuc(a1-2)Gal(b1-4)[Fuc(a1-3)]GlcNAc(b1-2)Man(a1-3)[Fuc(a1-2)Gal(b1-4)[Fuc(a1-3)]GlcNAc(b1-2)Man(a1-6)]Man(b1-4)GlcNAc(b1-4)GlcNAc
# Method in brief: as §1
# [15] = target: Fuc(a1-2)Gal(b1-4)[Fuc(a1-3)]GlcNAc(b1-3)Gal(b1-4)[Fuc(a1-3)]GlcNAc
# Method in brief: as §1
# [16] = target: Fuc(a1-2)Gal(b1-4)[Fuc(a1-3)]GlcNAc(b1-3)Gal(b1-4)[Fuc(a1-3)]GlcNAc(b1-3)Gal(b1-4)[Fuc(a1-3)]GlcNAc
# Method in brief: as §1
# Fuc(a1-2)Gal6S(b1-4)Glc = target: Fuc(a1-2)Gal6S(b1-4)Glc
# Method in brief: as §1
# [17] = target: Fuc(a1-2)Gal6S(b1-4)Glc6S
# Method in brief: as §1
# [18] = target: Fuc(a1-2)Gal6S(b1-4)GlcNAc
# Method in brief: as §1
# Fuc(a1-2)[Gal(a1-3)]Gal = target: Fuc(a1-2)[Gal(a1-3)]Gal
# Method in brief: as §1
# [19] = target: Fuc(a1-2)[Gal(a1-3)]Gal(b1-3)GlcNAc
# Method in brief: as §1
# [20] = target: Fuc(a1-2)[Gal(a1-3)]Gal(b1-3)GlcNAc(b1-2)Man(a1-3)[Fuc(a1-2)[Gal(a1-3)]Gal(b1-3)GlcNAc(b1-2)Man(a1-6)]Man(b1-4)GlcNAc(b1-4)GlcNAc
# Method in brief: as §1
# [21] = target: Fuc(a1-2)[Gal(a1-3)]Gal(b1-4)Glc
# Method in brief: as §1
# [22] = target: Fuc(a1-2)[Gal(a1-3)]Gal(b1-4)GlcNAc
# Method in brief: as §1
# [23] = target: Fuc(a1-2)[Gal(a1-3)]Gal(b1-4)GlcNAc(b1-2)Man(a1-3)[Fuc(a1-2)[Gal(a1-3)]Gal(b1-4)GlcNAc(b1-2)Man(a1-6)]Man(b1-4)GlcNAc(b1-4)GlcNAc
# Method in brief: as §1
# [24] = target: Fuc(a1-2)[Gal(a1-3)]Gal(b1-4)[Fuc(a1-3)]GlcNAc
# Method in brief: as §1
# [25] = target: Fuc(a1-2)[Gal(a1-4)]Gal(b1-4)GlcNAc
# Method in brief: as §1
# [26] = target: Fuc(a1-2)[GalNAc(a1-3)]Gal
# Method in brief: as §1
# [27] = target: Fuc(a1-2)[GalNAc(a1-3)]Gal(b1-3)GlcNAc
# Method in brief: as §1
# [28] = target: Fuc(a1-2)[GalNAc(a1-3)]Gal(b1-3)GlcNAc(b1-2)Man(a1-3)[Fuc(a1-2)[GalNAc(a1-3)]Gal(b1-3)GlcNAc(b1-2)Man(a1-6)]Man(b1-4)GlcNAc(b1-4)GlcNAc
# Method in brief: as §1
# [29] = target: Fuc(a1-2)[GalNAc(a1-3)]Gal(b1-4)Glc
# Method in brief: as §1
# [30] = target: Fuc(a1-2)[GalNAc(a1-3)]Gal(b1-4)GlcNAc
# Method in brief: as §1
# [31] = target: Fuc(a1-2)[GalNAc(a1-3)]Gal(b1-4)GlcNAc(b1-2)Man(a1-3)[GalNAc(a1-3)[Fuc(a1-2)]Gal(b1-4)GlcNAc(b1-2)Man(a1-6)]Man(b1-4)GlcNAc(b1-4)GlcNAc
# Method in brief: as §1
# [32] = target: Fuc(a1-2)[GalNAc(a1-3)]Gal(b1-4)GlcNAc(b1-3)Gal(b1-4)GlcNAc
# Method in brief: as §1
# [33] = target: Fuc(a1-2)[GalNAc(a1-3)]Gal(b1-4)GlcNAc(b1-3)Gal(b1-4)GlcNAc(b1-3)Gal(b1-4)GlcNAc
# Method in brief: as §1
# [34] = target: Fuc(a1-2)[GalNAc(a1-3)]Gal(b1-4)[Fuc(a1-3)]GlcNAc
# Method in brief: as §1
# [35] = target: Fuc(a1-2)[GalNAc(a1-4)]Gal(b1-4)GlcNAc
# Method in brief: as §1
# [36] = target: Fuc(a1-2)[GalNAc(b1-3)]Gal
# Method in brief: as §1
# Fuc(a1-3)GlcNAc = target: Fuc(a1-3)GlcNAc
# Method in brief: as §1
binder,measurement,setting,value
"StdA (Salmonella typhimurium), Q8Z3Z0 (protein) MAAAGMMYGASVFAADTTPTAGPFGSGKILFTGTITNSPCDIAPGDDAITVPFGQISYRKLNTANATTDSKPFTIHLQNCAFDPNETTIAGSAGKMSKVTVSFSGTADTSGKAYVSTGSAQHVGVQLLKGDNTSLITPNTPMPDGDAQQLQAGNNELNFFARLIALTDAATPGDVNASVTYTLKYL",glycan array binding signal (z-score),Fuc(a1-2)Gal,-0.506
same,glycan array binding signal (z-score),Fuc(a1-2)Gal(b1-3)GalNAc,0.436
same,glycan array binding signal (z-score),[1],0.329
same,glycan array binding signal (z-score),[2],-0.377
same,glycan array binding signal (z-score),[3],-0.378
same,glycan array binding signal (z-score),Fuc(a1-2)Gal(b1-3)GlcNAc,-0.15
same,glycan array binding signal (z-score),[4],10.3
same,glycan array binding signal (z-score),[5],-0.459
same,glycan array binding signal (z-score),[6],0.192
same,glycan array binding signal (z-score),[7],-0.361
same,glycan array binding signal (z-score),[8],-0.217
same,glycan array binding signal (z-score),Fuc(a1-2)Gal(b1-4)Glc,-0.451
same,glycan array binding signal (z-score),Fuc(a1-2)Gal(b1-4)Glc6S,0.205
same,glycan array binding signal (z-score),Fuc(a1-2)Gal(b1-4)GlcNAc,-0.284
same,glycan array binding signal (z-score),[9],0.883
same,glycan array binding signal (z-score),[10],-0.306
same,glycan array binding signal (z-score),[11],0.168
same,glycan array binding signal (z-score),[12],-0.498
same,glycan array binding signal (z-score),[13],-0.448
same,glycan array binding signal (z-score),[14],2.3
same,glycan array binding signal (z-score),[15],1.11
same,glycan array binding signal (z-score),[16],1.04
same,glycan array binding signal (z-score),Fuc(a1-2)Gal6S(b1-4)Glc,1.17
same,glycan array binding signal (z-score),[17],0.124
same,glycan array binding signal (z-score),[18],-0.527
same,glycan array binding signal (z-score),Fuc(a1-2)[Gal(a1-3)]Gal,-0.146
same,glycan array binding signal (z-score),[19],-0.121
same,glycan array binding signal (z-score),[20],-0.48
same,glycan array binding signal (z-score),[21],0.077
same,glycan array binding signal (z-score),[22],-0.14
same,glycan array binding signal (z-score),[23],-0.604
same,glycan array binding signal (z-score),[24],0.507
same,glycan array binding signal (z-score),[25],-0.437
same,glycan array binding signal (z-score),[26],0.692
same,glycan array binding signal (z-score),[27],0.337
same,glycan array binding signal (z-score),[28],-0.063
same,glycan array binding signal (z-score),[29],-0.441
same,glycan array binding signal (z-score),[30],-0.623
same,glycan array binding signal (z-score),[31],1.26
same,glycan array binding signal (z-score),[32],-0.306
same,glycan array binding signal (z-score),[33],1.22
same,glycan array binding signal (z-score),[34],0.068
same,glycan array binding signal (z-score),[35],-0.365
same,glycan array binding signal (z-score),[36],-0.126
same,glycan array binding signal (z-score),Fuc(a1-3)GlcNAc,0.132
